PubChem BioAssay AID256 (DTP/NCI, 2004)
Toxic doses and inconclusive results are not listed. Not every entry of the source has a single result; some have several. Only these are listed. There may be further records. The records of an entry repeat one measurement in other runs, samples, wells, individuals or studies. Brackets tell where a record comes from. Letters count within one entry.

Tested on: CD2F1 mice, L1210 leukemia ip, survival T/C
Experiment: NCI In Vivo Anticancer Drug Screen. Data for tumor model L1210 Leukemia (intraperitoneal) in CD2F1 (CDF1) mice
Conditions: higher = longer survival
How it was run: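 Transplantable tumor in mice; compound-treated vs vehicle-treated groups. Read-out = treated/control ratio of the measured endpoint.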

## O=c1n[n+]([O-])ccn1C1OC(CO)C(O)C1O (stereo not drawn)
endpoint: median survival time, dose: 450.0 mg/kg/injection, schedule: Q01DX009 (ip), vehicle: saline
  T/C: 116 % of control and 168 % of control

## CC(=O)Nc1cccc(N=NN(C)C)c1
endpoint: mean survival time, dose: 100.0 mg/kg/injection, schedule: Q01DX009 (ip), vehicle: Klucel (hydroxypropylcellulose) (HPC)
  T/C: 122 % of control and 164 % of control

## O=NN(CCCl)C(=O)Oc1cc(Cl)c(Cl)cc1Cl
endpoint: median survival time, dose: 25.0 mg/kg/injection, schedule: Q01DX009 (ip), vehicle: Klucel (hydroxypropylcellulose) (HPC)
  T/C: 120 % of control and 164 % of control
endpoint: median survival time, dose: 100.0 mg/kg/injection, schedule: Q01DX009 (ip), vehicle: Klucel (hydroxypropylcellulose) (HPC)
  T/C: 90 % of control and 150 % of control

## COC(=O)Nc1nc2ccc(C3(c4ccc(F)cc4)OCCO3)cc2[nH]1
endpoint: mean survival time, dose: 50.0 mg/kg/injection, schedule: Q01DX009 (ip), vehicle: saline
  T/C: 108 % of control, 120 % of control, 166 % of control

## CCOC(=O)C(CC(C)C)NC(=O)C(Cc1ccc(N(CCCl)CCCl)cc1)NC(C)=O (stereo not drawn)
endpoint: mean survival time, dose: 16.0 mg/kg/injection, schedule: Q04DX003 (ip), vehicle: saline with Tween-80
  T/C: 106 % of control, 107 % of control, 114 % of control [sample A] and 94 % of control [sample B] and 124 % of control [sample C]
endpoint: mean survival time, dose: 32.0 mg/kg/injection, schedule: Q04DX003 (ip), vehicle: saline with Tween-80
  T/C: 107 % of control, 116 % of control [sample A] and 92 % of control [sample B] and 153 % of control [sample C]
endpoint: mean survival time, dose: 64.0 mg/kg/injection, schedule: Q04DX003 (ip), vehicle: saline with Tween-80
  T/C: 115 % of control, 158 % of control [sample A] and 97 % of control [sample B]
endpoint: mean survival time, dose: 256.0 mg/kg/injection, schedule: Q01DX001 (ip), vehicle: saline with Tween-80
  T/C: 150 % of control [sample A] and 106 % of control [sample B]

## [Cl][Pt+2][Cl].[NH-]c1ccc(Cl)cc1[NH-]
endpoint: mean survival time, dose: 20.0 mg/kg/injection, schedule: Q01DX009 (ip), vehicle: saline with Tween-80
  T/C: 122 % of control and 181 % of control

## O=CC(NC(=O)N(CCCl)N=O)C(O)C(O)C(O)CO (stereo not drawn)
endpoint: mean survival time, dose: 2.5 mg/kg/injection, schedule: Q04DX002 (ip), vehicle: saline
  T/C: 124 % of control and 150 % of control
endpoint: mean survival time, dose: 24.0 mg/kg/injection, schedule: Q01DX001 (ip), vehicle: saline
  T/C: 551 % of control, 597 % of control [sample A] and 239 % of control, 552 % of control, 804 % of control [sample B]
endpoint: mean survival time, dose: 81.0 mg/kg/injection, schedule: Q01DX001 (ip), vehicle: saline
  T/C: 87 % of control and 491 % of control
endpoint: mean survival time, dose: 120.0 mg/kg/injection, schedule: Q01DX001 (ip), vehicle: saline
  T/C: 94 % of control and 284 % of control

## Cc1c2ccncc2c(C)c2c1[nH]c1ccc(O)cc12
endpoint: mean survival time, dose: 25.0 mg/kg/injection, schedule: Q04DX003 (ip), vehicle: water
  T/C: 114 % of control and 159 % of control

## Cn1cnc([N+](=O)[O-])c1[Se]c1nc(N)nc2c1ncn2C1OC(CO)C(O)C1O (stereo not drawn)
endpoint: mean survival time, dose: 32.0 mg/kg/injection, schedule: Q01DX009 (ip), vehicle: distilled water + Tween-80
  T/C: 111 % of control and 150 % of control

## CN(CCO)C1=C(N2CC2)C(=O)C(N(C)CCO)=C(N2CC2)C1=O
endpoint: mean survival time, dose: 2.0 mg/kg/injection, schedule: Q01DX009 (ip), vehicle: saline
  T/C: 100 % of control and 158 % of control

## CCOC(=O)c1ccc(N)cc1
endpoint: mean survival time, dose: 100.0 mg/kg/injection, schedule: Q01DX001 (ip), vehicle: saline with Tween-80
  T/C: 102 % of control and 182 % of control

## COc1ccc(OC)c(NC(=O)Nc2cc(Cl)c(OC)cc2OC)c1
endpoint: mean survival time, dose: 400.0 mg/kg/injection, schedule: Q01DX009 (ip), vehicle: saline with Tween-80
  T/C: 94 % of control and 157 % of control

## [Cl][Pt+2][Cl].[NH-]CC1(C[NH-])CCC1
endpoint: mean survival time, dose: 6.25 mg/kg/injection, schedule: Q04DX003 (ip), vehicle: saline
  T/C: 111 % of control and 167 % of control

## Cc1ccc(NCC2(/N=C/c3ccccc3)OC(CO)C(O)C2O)cc1 (stereo not drawn)
endpoint: mean survival time, dose: 400.0 mg/kg/injection, schedule: Q01DX009 (ip), vehicle: Klucel (hydroxypropylcellulose) (HPC)
  T/C: 124 % of control and 155 % of control

## O=C(NCCCN1CC1)C(=O)NCCCN1CC1
endpoint: mean survival time, dose: 6.25 mg/kg/injection, schedule: Q01DX009 (ip), vehicle: saline
  T/C: 113 % of control and 166 % of control

## NC(=S)N/N=C/c1ccc(O)cn1
endpoint: mean survival time, dose: 100.0 mg/kg/injection, schedule: Q01DX009 (ip), vehicle: saline
  T/C: 109 % of control, 179 % of control, 200 % of control

## CN(C)CCN1C(=O)c2cccc3cc([N+](=O)[O-])cc(c23)C1=O
endpoint: mean survival time, dose: 6.0 mg/kg/injection, schedule: Q01DX009 (ip), vehicle: saline with Tween-80
  T/C: 115 % of control and 160 % of control

## Cc1ccc(S(=O)(=O)N/N=C/C(=O)O)cc1
endpoint: mean survival time, dose: 50.0 mg/kg/injection, schedule: Q01DX009 (ip), vehicle: other
  T/C: 118 % of control and 153 % of control

## S=P(N1CC1)(N1CC1)N1CC1
endpoint: mean survival time, dose: 22.4 mg/kg/injection, schedule: Q01DX001 (ip), vehicle: saline
  T/C: 104 % of control and 152 % of control

## O=C(O)c1[nH]c(=O)[nH]c(=O)c1F
endpoint: mean survival time, dose: 10.0 mg/kg/injection, schedule: Q01DX009 (ip), vehicle: saline
  T/C: 124 % of control and 166 % of control

## CCNCC(=O)O[C@]1(CC)C(=O)OCc2c1cc1n(c2=O)Cc2cc3ccccc3nc2-1
endpoint: median survival time, dose: 60.0 mg/kg/injection, schedule: Q04DX002 (ip), vehicle: saline
  T/C: 107 % of control and 172 % of control
